The structures appear in SMILES notation. Hit rate of the full screen: of about 48,000 compounds, about 450 (0.94%) were called active. Roughly 19% stayed inconclusive and do not appear here. The call rests on the fitted dose curve; in most records, active means well fitted inhibition curve with a large enough effect; inconclusive means small, poorly fitted or top-dose-only effect; inactive means no such curve, though single readings can be large or run the other way. This is one part of the list.

The assay in a line: Primary qHTS for Identification of Small Molecule Inhibitors of Huntingtin Promoter Activity. Further: nearly all actives have a fitted effect of over 50% in size. Particulars: HEK293 HTT promoter firefly luciferase reporter (activity 0% = vehicle and -100% = no light), 24 h; series mostly up to 57.5 µM; activity change, negative = inhibition: at the top concentration. In short, it runs like this:
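HEK293 cells carrying firefly luciferase reporters were seeded at 2,500 per well in Opti-MEM and cultured for 24 h. They were then treated with compounds at up to 57.5 uM final for 24 h at 37 degrees C before Dual-Glo luminescence readout.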
For the molecule `O=C(NC1CC(=O)N(c2ccc(F)cc2)C1)C1CC1` (configuration not stated), the “activity change, negative = inhibition” value was inactive: -3.32%.

Regarding `COc1ccc2oc(=O)c(-c3nc(-c4cccs4)no3)cc2c1`, the “activity change, negative = inhibition” value is inactive: 1.63%.

With `Cc1ccc(NC(=O)Cn2nnc(C(=O)NCc3ccc4c(c3)OCO4)c2N)cc1Cl`, the “activity change, negative = inhibition” value was inactive: -16.2%.

As for `Cc1cc(C)cc(NC(=O)CCCc2nc(-c3ccccc3Cl)no2)c1`, the “activity change, negative = inhibition” value is inactive: -21.3%. With `CSc1nc2sc3c(c2c(=O)n1-c1ccccc1)CCC(C(C)(C)C)C3` (configuration not stated), the “activity change, negative = inhibition” value was inactive: -2.62%.

Consider `CC(=O)c1ccc(OCC(=O)N2CCCCC2)cc1`, for which the “activity change, negative = inhibition” value is inactive: 7.7%.

For the molecule `Cn1c(=O)n(CCCc2ccccc2)c(=O)c2c1nc1n2CCN1c1ccc(F)cc1`, the “activity change, negative = inhibition” value was inactive: -13.9%. With `CCOC(=O)c1cc2c(=O)n3ccccc3nc2n(Cc2ccco2)c1=NC(=O)c1ccc(OCC)cc1`, the “activity change, negative = inhibition” value is inactive: -18.6%.

Take `CCOCC(O)COc1ccc(NC(=O)CC[S+](C)C)cc1` (configuration not stated): the activity change, negative = inhibition entry was “inactive”. Then `CCCCOC(=O)c1ccc(NC(=O)c2cnc3ccc(C)cn3c2=O)cc1`, with inactive: -20.2%. The value for `CCN(c1cccc(C)c1)c1ncnc2c1cnn2-c1cccc(Cl)c1` was inactive: -4.59%; that for `CCn1c(=O)cc(OCC(=O)N2CCN(c3ccc(F)cc3)CC2)c2ccccc21` was inactive: -6.3%.

As to `Cc1nn(C(=O)c2ccc(Br)cc2)c(C)c1Sc1ccccc1`, the “activity change, negative = inhibition” value is inactive: -25.9%. The value for `COc1cc(OC)c(N(C)C(=O)c2sc3nc4n(c(=O)c3c2C)CCCC4)cc1Cl` was inactive: -10.7%; that for `Cc1ccc(NC(=O)Cn2c(=O)n(Cc3nc(-c4ccccc4)no3)c(=O)c3cc4c(cc32)OCO4)c(C)c1` was inactive: 2.64%; that for `COc1ccc(CCNC(=O)CSc2n[nH]c(-c3ccccc3Cl)n2)cc1OC` was inactive: -9.73%. Then `COc1ccc(Cl)cc1NC(=O)CSC1=Nc2ccccc2C2=NC(CC(=O)NCc3cccs3)C(=O)N12` (configuration not stated), with inactive: -27.1%; and `O=C(NCc1ccccc1)c1cnc(N2CCCCC2)c2ccccc12`, with inactive: 6.09%. The value for `COc1cccc(Nc2nc3ccc(C)cc3nc2-n2nc(C)cc2C)c1` was inactive: 6.28%. As for `COc1ccc(Nc2c(-c3ccccn3)nc3ccc(Cl)cn23)cc1`, the “activity change, negative = inhibition” value is inactive: -6.95%. Then `Cc1ccc(NC(=O)C2=CC(c3ccc4c(c3)OCO4)=NS(=O)(=O)N2C)cc1`, with inactive: -9.1%. For the molecule `CCc1ccc(-n2c(=O)c3cccnc3n2CC(=O)NCc2ccc(C)cc2)cc1`, the “activity change, negative = inhibition” value was inactive: -8.68%. Then `Cc1ccc(C(c2sc3nc(-c4ccco4)nn3c2O)N2CCC3(CC2)OCCO3)cc1` (configuration not stated), with inactive: 18%; and `Cc1ccc(NC(=O)CSc2nc(-c3ccccc3Cl)nc3cc(=O)[nH]n23)c(C)c1`, with inactive: -17.1%; and `CCc1cccc(Nc2ncnc3onc(-c4ccc(F)cc4)c23)c1`, with inactive: -22.5%.

For `O=C(CSc1nc(-c2ccc(F)cc2)cc(C(F)(F)F)n1)NCCc1ccccc1`, the “activity change, negative = inhibition” value was inactive: -30.4%. The value for `COc1cccc(N2CCN(S(=O)(=O)c3ccc(-c4ccno4)cc3OC)CC2)c1` was inactive: 4.34%; that for `O=C(CSc1cn(CC(=O)N2CCCCC2)c2ccccc12)Nc1ccc(C(F)(F)F)cc1` was inactive: 41.2%; that for `COc1ccc(OC)c(C2NC(=O)NC(C)=C2C(=O)Nc2ccc(F)cc2)c1` (configuration not stated) was inactive: -11.3%.

In the case of `CN1CCN(CCOc2cc(OC3CCOCC3)c3c(Nc4c(Cl)ccc5c4OCO5)ncnc3c2)CC1`, the “activity change, negative = inhibition” value was inactive: -3.06%. With `Cc1ccc(C(=O)NCc2ccc(F)cc2)cc1NC(=O)c1nsc2ccccc12`, the “activity change, negative = inhibition” value was inactive: -9.96%. On to `CCN(CC)CCNC(=O)c1sc2ncccc2c1-n1cccc1`, for which the “activity change, negative = inhibition” value is inactive: 0%. The value for `Cn1cc(S(=O)(=O)c2ccccc2)c(=O)c2cc(F)c(N3CCCCCC3)cc21` was inactive: -25%.

With `Cc1cc(C)cc(-n2c(SCC(=O)Nc3ccc4c(c3)OCCO4)nc3c([nH]c4ccccc43)c2=O)c1`, the “activity change, negative = inhibition” value is inactive: -19.4%. With `CC1=C(c2ccc(C)c(C)c2)S(=O)(=O)N=C1N1CCC(C(=O)NC(C)Cc2ccco2)CC1` (configuration not stated), the “activity change, negative = inhibition” value is inactive: -21.5%.

For the molecule `COc1ccc(C)cc1-n1cnc2cc(C(=O)NC3CCCC3)ccc21`, the “activity change, negative = inhibition” value was inactive: -20.2%. The value for `Cc1ccc(NC(=O)c2ccc(NC(=O)N3CCSc4ncccc43)cc2)c(C)c1` was inactive: -14.8%; that for `Cc1cc(C(=O)Nc2c(C)nc3ccccn3c2=O)ccc1[N+](=O)[O-]` was inactive: -12.8%; that for `O=C(CSc1nc2c([nH]c3ccccc32)c(=O)n1-c1ccc(Cl)cc1)NCC1CCCO1` (configuration not stated) was inactive: -9.5%. Then `CCOc1ccc(/C=C/c2nc(C#N)c(NCCc3ccccc3)o2)cc1`, with inactive: -12.9%; and `COc1ccccc1NC(=O)Cn1c(=O)n(CCCCCC(=O)NCc2ccccc2)c(=O)c2sccc21`, with inactive: -11.8%. Then `COC(=O)C(c1ccccc1Cl)N1CCc2sccc2C1` (configuration not stated), with inactive: -7.54%. For `COc1cccc(C(=O)Nc2ccccc2-c2nnc(-c3cccc(OC)c3)o2)c1`, the “activity change, negative = inhibition” value was inactive: 21.5%. Take `CC(=O)Nc1ccc(S(=O)(=O)NC2(C(F)(F)F)NC(=O)N(CCc3ccc(F)cc3)C2=O)cc1` (configuration not stated): the activity change, negative = inhibition is inactive: -15.2% [at 11.5 µM]. Then `Cc1ccc(-n2c(SCC(N)=O)nc3c(oc4ccccc43)c2=O)cc1C`, with inactive: -5.91%; and `CCOCCCn1c(=N)c(C(=O)NCC2CCCO2)cc2c(=O)n3cccc(C)c3nc21` (configuration not stated), with inactive: -5.53%; and `Cc1ccc(C)c(N2CCN(Cc3csc(C)c3)CC2)c1`, with inactive: -21.9%. With `Nc1ccc(S(=O)(=O)Nc2ccnn2-c2ccccc2)cc1`, the activity change, negative = inhibition entry is “inactive”. The value for `COC(=O)C1=C(c2ccccc2)c2ccccc2S(=O)(=O)N1CC(=O)Nc1ccccc1Cl` was inactive: -17.8%. Turning to `COC(=O)C1CCN(S(=O)(=O)c2cc3c4c(c2)CC(=O)N4CCC3)CC1`, the “activity change, negative = inhibition” value was inactive: -20%. As for `CCCN(CCC)CCCNC(=O)Cn1cnc2sc(C)c(S(=O)(=O)N3CCC(C)CC3)c2c1=O`, the “activity change, negative = inhibition” value is inactive: -9.09%. Then `O=C(Nc1cccc(F)c1)c1ccc(-c2ccccc2)s1`, with inactive: 27.8%. Then `CCN(C)C(=O)Oc1cccc([C@H](C)N(C)C)c1`, with “inactive”; and `COc1ccc2c(c1)NC(c1cccnc1)=NC(c1ccc(F)cc1)=N2`, with inactive: 26.8%; and `Cc1ccc(S(=O)(=O)c2cn(Cc3ccccc3Cl)c3ccc(F)cc3c2=O)cc1`, with inactive: -12.6%.

As for `COc1ccc(Br)cc1CNC(=O)c1ccc2c(c1)N(Cc1ccc(C)cc1)CCS2`, the “activity change, negative = inhibition” value was inactive: -22.4%.

On to `Cc1ccc(CN2C(=O)c3ccccc3Sc3ccc(C(=O)OCc4ccco4)cc32)cc1`, for which the “activity change, negative = inhibition” value was inactive: -27.4%. Then `Cc1ccc(C)c(CN2C(=O)c3ccccc3S(=O)(=O)c3ccc(C(=O)NCc4ccccc4)cc32)c1`, with inactive: -16.3%; and `CCCN1CCc2nc(N3CCN(c4ncccn4)CC3)ncc2C1`, with inactive: 3.11%; and `Cc1cccc(OCCCn2c(CCNC(=O)C(C)(C)C)nc3ccccc32)c1`, with inactive: -2.91%. Then `CCn1cc2nc(SCc3cc(C)ccc3C)n(Cc3ccc(OC)cc3)c(=O)c2n1`, with inactive: -24.6%. Turning to `Cc1cccc(OCCSc2nc3ccc(NC(=O)COc4ccccc4)cc3s2)c1`, the “activity change, negative = inhibition” value was inactive: 3.05%.

As to `Cc1ccc2c(=O)c(C(=O)c3ccc(F)cc3)cn(CC(=O)NCCc3ccccc3)c2n1`, the “activity change, negative = inhibition” value was inactive: 5.24%. Then `CCOCCCNC(=O)C(=O)Nc1c2c(nn1-c1ccc(OC)cc1)CSC2`, with inactive: -16.8%; and `CCOc1ccc(C(=O)Nc2ccc3oc(-c4cccnc4)nc3c2)cc1`, with inactive: -8.67% [at 11.5 µM]. The value for `Cc1c(C(=O)NCc2ccccc2Cl)sc2nc[nH]c(=O)c12` was inactive: 17.7%; that for `Cc1ccc(-n2nc3c(=O)n(CCCC(=O)NCc4ccccc4F)nc(C)c3c2C)cc1` was inactive: -18.5%. Then `Cc1csc2nc(COC(=O)CNC(=O)c3ccccc3Cl)cc(=O)n12`, with inactive: 8.04%; and `O=C(Nc1c(C(=O)N2CCN(c3ccccc3F)CC2)oc2ccccc12)c1ccccc1F`, with inactive: -29.9%.

For `O=C(CN1CCCN(Cc2ccc(F)cc2)S1(=O)=O)NCc1ccccc1Cl`, the “activity change, negative = inhibition” value is inactive: -19%. Then `CN1CCN(CCCNC(=O)c2ccc3nc(Cc4ccccc4)oc3c2)CC1`, with inactive: -8.36%. Then `CCn1cc(C(=O)NCc2ccc(C)cc2)c(=O)c2cc(S(=O)(=O)N3CCc4ccccc4C3)ccc21`, with inactive: -0.689%. Take `N#Cc1ccccc1NC(=O)c1cnc(N2CCOCC2)c2ccccc12`: the “activity change, negative = inhibition” value was inactive: -4.28%. Then `CCC(=O)N1CCc2cc(Br)cc(S(=O)(=O)CCC(=O)NCc3ccc(F)cc3)c21`, with inactive: -8.41%; and `CC(=O)N1CCOc2cc(S(=O)(=O)N(C)Cc3ccccc3)c(Cl)cc21`, with inactive: -18.1%; and `COc1ccccc1-c1nnc(C2CCN(C(=O)c3ccc(Cl)cc3)CC2)o1`, with inactive: -12.2%. Then `Cc1ccc(Cn2c(CNC(=O)c3cccc(C)c3)nc3ccccc32)cc1`, with inactive: -12.4%; and `COc1cccc2c1Oc1ncccc1N(C(=O)CCC(=O)NCc1ccc(C)cc1)C2`, with inactive: -2.57%. Then `Cn1nnnc1SCCCNCc1cccc(OCc2ccccc2Cl)c1`, with inactive: -13.9%; and `CCOc1ccccc1NC(=O)Cn1c2ncccc2c(=O)n1-c1ccc(C)c(C)c1`, with inactive: -14.7%; and `CCC(=O)c1c(O)cc(O)cc1O`, with inactive: 2.95%.

For the molecule `Cc1oc(-c2ccc(C(=O)Nc3ccccc3F)cc2)nc1COc1ccccc1`, the “activity change, negative = inhibition” value was inactive: -26%. As for `COc1ccc(C)cc1NC(=O)CSc1nc(=O)n(Cc2ccccn2)c2c1CCC2`, the “activity change, negative = inhibition” value is inactive: -5.08%.

In the case of `CC(=O)N1CCCc2cc(S(=O)(=O)Nc3ccc(C)c(F)c3)ccc21`, the “activity change, negative = inhibition” value is inactive: -29.8%. Then `Cc1oc2c(c(C)cc3oc(=O)c(CC(=O)NCc4ccc(F)cc4)c(C)c32)c1C`, with inactive: -0.847%; and `Cc1cccc(C)c1NC(=O)CN1C(=O)c2cccc3cccc1c23`, with inactive: -21.4%; and `CCOc1ccc(NC(=O)CN2C(=O)C3(SCC(=O)N3c3ccc(F)cc3)c3ccccc32)cc1` (configuration not stated), with inactive: -12.4%.

For the molecule `CCc1nn(CC(=O)N2CCN(c3cccc(C(F)(F)F)c3)CC2)c(=O)c2cccn12`, the “activity change, negative = inhibition” value was inactive: -16%. With `CCCCN(C)C(=O)Cn1c(SCC(=O)Nc2ccc(C)c(C)c2)nc2ccccc21`, the “activity change, negative = inhibition” value is inactive: -30.4%. As for `CCOC(=O)C1(C)C=C(Nc2ccc(C(=O)O)cc2)C(=O)N1c1ccc(C(=O)O)cc1` (configuration not stated), the “activity change, negative = inhibition” value was inactive: -5.8%. The value for `Cc1nc2ccccc2n1CCc1nc2c3ccccc3nc(SCc3ccc(F)cc3)n2n1` was inactive: -9.33%. Regarding `CC1Cc2ccccc2N1NC(=O)c1ccc(Cl)c(S(N)(=O)=O)c1` (configuration not stated), the activity change, negative = inhibition result is “inactive”. Consider `COc1ccc2c(c1)c1c(c(=O)n(-c3ccccc3C)c(=O)n1Cc1c(F)cccc1Cl)n2C`, for which the “activity change, negative = inhibition” value is inactive: -7.67%. For the molecule `CCOC(=O)c1c(C)oc2nc(C)nc(NCC3CCN(Cc4cccc(Cl)c4)CC3)c12`, the “activity change, negative = inhibition” value is inactive: -19.2%. The value for `Cc1cccc(NC(=O)C2CCCN(c3nc4ccccc4s3)C2)c1C` (configuration not stated) was inactive: -4.45%. Consider `CCOC(=O)C1CCCN(C(=O)Cn2nc(CC)n3c(cc4occc43)c2=O)C1` (configuration not stated), for which the “activity change, negative = inhibition” value was inactive: -15.8%. Then `Cc1ccc(CCNC(=O)c2ccc(CS(=O)(=O)Cc3ccccc3F)o2)cc1`, with inactive: -0.235%.

The values are drawn from PubChem BioAssay AID1508623 (National Center for Advancing Translational Sciences (NCATS), 2021).
